Laboratory results as given in PubChem BioAssay AID488969 (Vanderbilt High Throughput Screening Facility, 2010).
In all, about 110,000 compounds were measured (“z-score”: median about -0.1, highest 2% from about 2 on). Some of the results follow.

target: Metabotropic glutamate receptor 8 (Rattus norvegicus) (UniProt P70579); test: mGluR8 Gi/Go-coupled signaling modulation – cell-based, rat, thallium flux, HTS, primary screen (AID 488969); conditions: HEK293 rat mGluR8, GIRK (G protein-gated inwardly rectifying potassium channel) thallium flux, FluoZin2; at 10 µM; stronger effect = higher value; submaximal glutamate (EC20) added with thallium
UniProt P70579, sequence (P70579 whole entry, looked up): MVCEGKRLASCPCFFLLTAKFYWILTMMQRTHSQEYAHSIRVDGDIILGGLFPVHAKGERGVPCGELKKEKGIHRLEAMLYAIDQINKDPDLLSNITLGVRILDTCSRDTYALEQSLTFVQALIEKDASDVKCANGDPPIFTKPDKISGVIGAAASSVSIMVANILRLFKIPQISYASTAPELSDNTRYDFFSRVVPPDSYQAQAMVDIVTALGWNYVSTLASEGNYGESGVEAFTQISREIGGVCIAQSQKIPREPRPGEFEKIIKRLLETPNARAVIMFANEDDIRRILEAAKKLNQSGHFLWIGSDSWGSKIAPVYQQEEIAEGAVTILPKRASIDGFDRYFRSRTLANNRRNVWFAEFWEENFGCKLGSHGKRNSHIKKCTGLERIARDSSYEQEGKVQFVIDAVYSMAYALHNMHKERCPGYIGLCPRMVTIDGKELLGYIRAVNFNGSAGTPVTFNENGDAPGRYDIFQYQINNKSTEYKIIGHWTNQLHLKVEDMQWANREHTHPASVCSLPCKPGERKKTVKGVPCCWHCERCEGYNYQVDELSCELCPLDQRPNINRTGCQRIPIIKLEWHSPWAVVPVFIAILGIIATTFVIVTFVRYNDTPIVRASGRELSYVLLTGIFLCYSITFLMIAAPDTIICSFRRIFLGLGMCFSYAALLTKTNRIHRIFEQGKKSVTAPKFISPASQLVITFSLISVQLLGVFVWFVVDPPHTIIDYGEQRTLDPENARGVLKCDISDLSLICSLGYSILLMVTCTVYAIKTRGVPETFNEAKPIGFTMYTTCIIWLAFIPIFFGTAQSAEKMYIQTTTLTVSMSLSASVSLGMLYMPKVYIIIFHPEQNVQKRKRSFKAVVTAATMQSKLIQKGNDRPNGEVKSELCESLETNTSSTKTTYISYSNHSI

Row | SMILES | z-score
1 | CCN1CCN(Cc2c(C)[nH]c3ccc(OC)cc3c2=O)CC1 | 0.46
2 | COc1cc(NC(=O)C2CC2)c(C(=O)O)cc1OC | 0.363
3 | Cc1cc(C)cc(NC(=O)Cn2c(=O)oc3cc(S(=O)(=O)N4CC(C)CC(C)C4)ccc32)c1 (stereo unspecified) | 0.103
4 | CCOc1cc(C(=O)Nc2nnc(CC)s2)ccc1OCC(=O)N1CCOCC1 | 0.0228
5 | CCC(=O)c1cc(-c2nc3ccccc3n2C)n(C)c1 | 0.351
6 | Cc1cc(C)n2c(Nc3ccc4c(c3)OCCO4)c(-c3ccco3)nc2n1 | -0.231
7 | CCC(=O)N(Cc1cc2ccc(C)cc2n2nnnc12)C1CCCCC1 | -0.401
8 | COc1ccc(CCC(=O)Nc2ccc3c(c2)OCCO3)cc1 | 0.397
9 | O=C(CSCc1ccc(Cl)cc1)Nc1cccc(C(=O)Nc2ccccc2C(=O)O)c1 | -0.71
10 | CCOc1ccc(C(=O)NCCN(C)C)cc1 | 0.509
11 | O=C(CSc1nnc2ncccn12)N1CCCCCC1 | 1.25
12 | Nc1nc2n(n1)C(c1cccs1)CC(c1ccc(Br)cc1)N2 (stereo unspecified) | 1.18
13 | Cc1ccc(Sc2c(C#N)c(-c3ccccc3)nn2C)cc1 | -0.0404
14 | CCCn1c(SCC(=O)NC2CCCCC2C)n[nH]c1=O (stereo unspecified) | 0.79
15 | Cc1ccc(Oc2nn[nH]n2)cc1 | -0.0764
16 | Cc1csc2nc(CSc3nc4ccccc4o3)cn12 | 0.00634
17 | Cc1cc(O)c(NC(=O)c2ccco2)cc1C | -0.0409
18 | O=C(CCN1CCCC1Cc1ccccc1)c1ccc2c(c1)OCCO2 (stereo unspecified) | 0.409
19 | CCC1CCCCN1C(=O)Cn1c(C(=O)OC)cc2ccsc21 (stereo unspecified) | 0.356
20 | CN(C)c1ccc(/C=C(\C#N)c2ccccn2)cc1 | -0.0409
21 | O=C(NCN1CCN(c2ccccc2F)CC1)c1cccnc1 | 0.0601
22 | CCn1cc(C(=O)O)c(=O)c2cc(F)c(N3CCN(S(=O)(=O)c4ccc(NC(C)=O)cc4)CC3)cc21 | -0.428
23 | COc1cccc(CN2CCCC(C(=O)N3CCCCC3)C2)c1OC (stereo unspecified) | 0.0909
24 | O=C(c1ccc2ccccc2c1)N1CCN(c2ccc(O)cc2)CC1 | -0.227

Row | SMILES | z-score
25 | Cc1ccc(S(=O)(=O)N2CCOCC2)cc1C(=O)OCC(=O)N1CCc2ccccc2C1 | -0.258
26 | Cc1ccccc1-c1nc(CS(=O)(=O)CC(=O)N2CCc3ccccc3C2)c(C)o1 | 0.753
27 | CC(=O)NCc1cccc(CNC(C)=O)n1 | 0.231
28 | Cc1ccn2c(C(=O)CSc3ccc(Cl)cc3Cl)c(C)nc2c1 | -1.02
29 | COc1ccc(-c2c(C#N)c(N)nc3c2c(=O)n(C)c(=O)n3C)cc1 | -0.978
30 | CC(C)OC(=O)CN1C(=O)S/C(=C/c2ccc(N3CCCCC3)o2)C1=O | 0.0366
31 | CCS(=O)(=O)N1Cc2ccccc2CC1C(=O)Nc1nc2c(C)cccc2s1 (stereo unspecified) | 0.537
32 | Cn1c(=O)n(CCc2ccccc2)c(=O)c2c1nc1n2CCCN1CCc1ccccc1 | -1.85
33 | CNC(=O)c1snnc1-c1ccccc1 | -0.0688
34 | CC1(C)Oc2ccc(C(=O)NC3CCCC3)cc2N(CC(=O)NC2CCCCC2)C1=O | 0.138
35 | O=C(c1ccc(Cn2c(=O)[nH]c3ccccc3c2=O)cc1)N1CCN(c2ccccc2)CC1 | -0.342
36 | CCOC(=O)N1CCN(C(=O)Cn2c(C)cc3ccccc3c2=O)CC1 | 0.171
37 | Cc1ccc(C)c(N/N=C2\CCCNC2=O)c1 | -0.226
38 | CCc1c(O)nc(N2CCN(Cc3ccccc3)CC2)[nH]c1=O | 0.961
39 | CN1CCc2c(OCC(=O)N3N=C(c4cccs4)CC3c3ccc(F)cc3)cccc2C1=O (stereo unspecified) | -0.343
40 | COc1ccc(/C=C/C(=O)c2ccc(NS(=O)(=O)c3ccc(C)cc3)cc2)cc1O | -0.47
41 | COc1ccc(OC)c(NC(=O)c2nnn(Cc3ccc(Br)cc3F)c2N)c1 | -0.452
42 | Cc1noc(C)c1CSc1nnc2sc3ccccc3n12 | -0.648
43 | CCCn1c(NCc2ccco2)nc2c1c(=O)n(C)c(=O)n2C | -0.0985
44 | COC(=O)C1=C(C)NC2=C(C(=O)C(C(=O)OC)C(c3ccc(OC)cc3)C2)C1c1ccccn1 (stereo unspecified) | 0.317
45 | CCOC(=O)c1c(NC(=O)COc2ncnc3ccccc23)sc(C)c1CC | -0.192
46 | COc1ccc(-c2nn[nH]n2)cc1OC | 0.0499
47 | CCOc1ccc2[nH]c(=O)c(CN(Cc3ccco3)C(=O)c3cccc(F)c3)cc2c1 | -0.241
48 | CC(C)c1cc(C(N)=O)c(NC(=O)c2cccc(COc3ccc(Br)cc3)c2)s1 | -0.147

Row | SMILES | z-score
49 | O=C1CN(C(=O)COC(=O)c2ccc(N3CCCCCC3)c([N+](=O)[O-])c2)c2ccccc2N1 | 0.0607
50 | CC12CCC(C(=O)Nc3cc(Cl)ccc3Cl)(C(Br)C1=O)C2(C)C (stereo unspecified) | -0.159
51 | CCn1cc(C(=O)NCCC2=CCCCC2)c(=O)c2cc(S(=O)(=O)N(C)C)ccc21 | -0.515
52 | CCOC(=O)N1CCN(Cc2nc3c(c(=O)n(C)c(=O)n3C)n2Cc2ccccc2C)CC1 | -0.27
53 | CCN=c1scc(-c2ccccc2)n1/N=C/c1ccccn1 | -0.0993
54 | FC(F)(F)c1ccc(Oc2ccc3cc(Br)ccc3c2)nc1 | 0.226
55 | COc1ccc2c(c1)OC/C(=C/c1cccs1)C2=O | 0.0336
56 | S=c1[nH]cc(-c2ccccc2)n1-c1ccccc1 | 0.267
57 | CCn1c(=O)n(-c2ccc(Cl)cc2)c(=O)c2c3c(sc21)COC(C)(C)C3 | -1.07
58 | C=CCOc1ccc(/C(O)=C2\C(=O)C(=O)N(CCOC)C2c2cccnc2)cc1 (stereo unspecified) | -0.0824
59 | CN(C)c1nc2sc3c(c2c(=O)n1C)CC(C)(C)OC3 | 0.532
60 | COc1ccc([N+](=O)[O-])cc1NS(=O)(=O)c1ccccc1 | -0.8
61 | Nc1nc(-c2cccnc2)nn1C(=O)COc1ccccc1 | -0.135
62 | COc1ccccc1N1CCN(Cc2nnnn2CCc2ccccc2)CC1 | -0.0559
63 | CCOc1ccccc1C1C2CCCCC2(O)CCN1C(=O)c1cccs1 (stereo unspecified) | -0.578
64 | CCOC(=O)C1=C(N)Oc2c(c(=O)[nH]c3ccccc23)C1c1ccccc1 (stereo unspecified) | -0.487
65 | COc1cc(NC(=O)c2ccco2)c(OC)cc1NC(=O)Nc1ccc(Cl)cc1 | -0.139
66 | O=C(CSc1nc2c(cnn2-c2ccc(F)cc2)c(=O)[nH]1)N1CCOCC1 | 0.476
67 | O=C(Nc1nnc(-c2ccc3c(c2)CCCC3)o1)C1CCCCC1 | -0.309
68 | Cc1cccc(NC(=O)CSc2nnc(-c3ccccc3)n2N)c1C | 0.2
69 | OC(COc1ccc(C2C=CCC2)cc1)CN1CCCCC1 (stereo unspecified) | 1.19
70 | CCN1CCN(c2c(Cl)cccc2NC(=O)c2ccco2)CC1 | -0.163
71 | CCc1ccc(C(=O)CSc2n[nH]c(-c3ccncc3)n2)cc1 | -0.0279
